# Assay results taken from the supplement of paper PMC12217912.
# The list shows a part of the results. The full chains were built here from the parent and the listed change. Inactive controls read about 0.05.
# B1: TEV protease; numbered along this chain (parent)
# chain: MGESLFKGPRDYNPISSSICHLTNESDGHTTSLYGIGFGPFIITNKHLFRRNNGTLVVQSLHGVFKVKDTTTLQQHLVDGRDMIIIRMPKDFPPFPQKLKFREPQREERICLVTTNFQTKSMSSMVSDTSCTFPSGDGIFWKHWIQTKDGQCGSPLVSTRDGFIVGIHSASNFTNTNNYFTSVPKNFMELLTNQEAQQWVSGWRLNADSVLWGGHKVFMVKPEEPFQPVKEATQL
# Variants of: B1
# Experiment: raw area under fraction-flipped curve 0-4 h after induction (AUC4h, not background-subtracted), DNA-recorder readout of cleavage of the substrate (dimensionless); higher = more cleavage of the substrate by the protease variant
# Conditions: temperature: 34 °C; time window: 0-4 h after rhamnose induction
# Method: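 In vivo DNA recorder in E. coli TOP10(DE3) ΔrhaA at 34 °C. Each TEVp single-site mutant (parent TEVp 0) is paired with a single-site variant of the 7-mer TEVs (canonical ENLYFQ|S). The substrate sits between flexible linkers in a Bxb1-sfGFP-TEVs-SsrA fusion, so cleavage stabilises Bxb1 and speeds flipping of a recombination array, read by NGS. The value is the raw area under the fraction-flipped curve over 0-4 h after rhamnose induction (AUC4h), with ≥20 reads per time point. It is not background-subtracted; inactive controls average about 0.047.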
# 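Note: Bxb1 expression induced with 0.2% (w/v) L-rhamnose at OD600 near 0.5, cultures sampled hourly, flipped fraction per protease–substrate barcode pair counted by paired-end Illumina sequencing.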
Variant,area with substrate ENLYFQA,area with substrate ENLYFQC,area with substrate ENLYFQG,area with substrate ENLYFQI,area with substrate ENLYFQK,area with substrate ENLYFQL,area with substrate ENLYFQM,area with substrate ENLYFQN,area with substrate ENLYFQP,area with substrate ENLYFQR,area with substrate ENLYFQS,area with substrate ENLYFQT,area with substrate ENLYFQV,area with substrate ENLYFQW,area with substrate ENLYFQY,area with substrate ENLYFQD,area with substrate ENLYFQE,area with substrate ENLYFQH
MGESLFKGPRDYNPISSSICHLTNESDGHTTSLYGIGFGPFIITNKHLFRRNNGTLVVQSLHGVFKVKDTTTLQQHLVDGRDMIIIRMPKDFPPFPQKLKFREPQYEERICLVTTNFQTKSMSSMVSDTSCTFPSGDGIFWKHWIQTKDGQCGSPLVSTRDGFIVGIHSASNFTNTNNYFTSVPKNFMELLTNQEAQQWVSGWRLNADSVLWGGHKVFMVKPEEPFQPVKEATQL [R106Y],0.0787,0.117,0.116,0.0533,0.0648,0.0576,0.0932,0.0764,0.066,0.0665,0.101,0.0688,0.0575,0.0668,0.0622,,,
MGESLFKGPRDYNPISSSICHLTNESDGHTTSLYGIGFGPFIITNKHLFRRNNGTLVVQSLHGVFKVKDTTTLQQHLVDGRDMIIIRMPKDFPPFPQKLKFREPQVEERICLVTTNFQTKSMSSMVSDTSCTFPSGDGIFWKHWIQTKDGQCGSPLVSTRDGFIVGIHSASNFTNTNNYFTSVPKNFMELLTNQEAQQWVSGWRLNADSVLWGGHKVFMVKPEEPFQPVKEATQL [R106V],0.105,,0.114,0.0641,0.0715,,,0.0783,0.0548,,0.105,,,0.0662,,,,
MGESLFKGPRDYNPISSSICHLTNESDGHTTSLYGIGFGPFIITNKHLFRRNNGTLVVQSLHGVFKVKDTTTLQQHLVDGRDMIIIRMPKDFPPFPQKLCFREPQREERICLVTTNFQTKSMSSMVSDTSCTFPSGDGIFWKHWIQTKDGQCGSPLVSTRDGFIVGIHSASNFTNTNNYFTSVPKNFMELLTNQEAQQWVSGWRLNADSVLWGGHKVFMVKPEEPFQPVKEATQL [K100C],0.0899,0.102,0.0974,,,0.0535,0.103,0.0699,0.0562,0.069,0.106,0.0708,0.0584,0.0575,0.0841,0.0464,0.0663,
MGESLFKGPRDYNPISSSICHLTNESDGHTTSLYGIGFGPFIITNKHLFRRNNGTLVVQSLHGVFKVKDTTTLQQHLVDGRDMIIIRMPKDFPPFPQKLKFREPQREERIPLVTTNFQTKSMSSMVSDTSCTFPSGDGIFWKHWIQTKDGQCGSPLVSTRDGFIVGIHSASNFTNTNNYFTSVPKNFMELLTNQEAQQWVSGWRLNADSVLWGGHKVFMVKPEEPFQPVKEATQL [C111P],0.0602,0.0616,0.0523,0.0515,0.0521,0.0491,0.0342,0.0266,,0.044,0.052,,,,,0.0466,,0.0486
MGESLFKGPRDYNPISSSICHLTNESDGHTTSLYGIGFGPFIITNKHLFRRNNGTLVVQSLHGVFKVKDTTTLQQHLVDGRDMIIIRMPKDFPPFIQKLKFREPQREERICLVTTNFQTKSMSSMVSDTSCTFPSGDGIFWKHWIQTKDGQCGSPLVSTRDGFIVGIHSASNFTNTNNYFTSVPKNFMELLTNQEAQQWVSGWRLNADSVLWGGHKVFMVKPEEPFQPVKEATQL [P96I],0.0878,0.095,0.112,0.0668,,0.0594,0.0802,0.0708,,0.0577,0.0982,0.0593,,0.0694,,,,
MGESLFKGPRDYNPISSSICHLTNESDGHTTSLYGIGFGPFIITNKHLFRRNNGTLVVQSLHGVFKVKDTTTLQQHLVDGRDMIIIRMPKDFPPFPQKGKFREPQREERICLVTTNFQTKSMSSMVSDTSCTFPSGDGIFWKHWIQTKDGQCGSPLVSTRDGFIVGIHSASNFTNTNNYFTSVPKNFMELLTNQEAQQWVSGWRLNADSVLWGGHKVFMVKPEEPFQPVKEATQL [L99G],0.0658,0.0923,,,,,,,0.0612,0.0655,0.0875,,,0.0357,0.0621,,,
MGESLFKGPRDYNPISSSICHLTNESDGHTTSLYGIGFGPFIITNKHLFRRNNGTLVVQSLHGVFKVKDTTTLQQHLVDGRDMIIIRMPKDFPPFPQKFKFREPQREERICLVTTNFQTKSMSSMVSDTSCTFPSGDGIFWKHWIQTKDGQCGSPLVSTRDGFIVGIHSASNFTNTNNYFTSVPKNFMELLTNQEAQQWVSGWRLNADSVLWGGHKVFMVKPEEPFQPVKEATQL [L99F],0.0748,,0.0967,,,0.0596,0.045,,,0.0586,0.0869,,,,0.0805,,,0.0704
MGESLFKGPRDYNPISSSICHLTNESDGHTTSLYGIGFGPFIITNKHLFRRNNGTLVVQSLHGVFKVKDTTTLQQHLVDGRDMIIIRMPKDFPPCPQKLKFREPQREERICLVTTNFQTKSMSSMVSDTSCTFPSGDGIFWKHWIQTKDGQCGSPLVSTRDGFIVGIHSASNFTNTNNYFTSVPKNFMELLTNQEAQQWVSGWRLNADSVLWGGHKVFMVKPEEPFQPVKEATQL [F95C],0.089,0.098,0.108,,,0.0597,,0.0601,,,0.0844,,,,0.0544,,,
MGESLFKGPRDYNPISSSICHLTNESDGHTTSLYGIGFGPFIITNKHLFRRNNGTLVVQSLHGVFKVKDTTTLQQHLVDGRDMIIIRMPKDFPPIPQKLKFREPQREERICLVTTNFQTKSMSSMVSDTSCTFPSGDGIFWKHWIQTKDGQCGSPLVSTRDGFIVGIHSASNFTNTNNYFTSVPKNFMELLTNQEAQQWVSGWRLNADSVLWGGHKVFMVKPEEPFQPVKEATQL [F95I],0.0911,0.0891,0.0862,0.0478,,0.0464,0.0721,0.0644,0.0747,0.0732,0.0823,0.0749,,0.0759,,0.0755,,0.0669
MGESLFKGPRDYNPISSSICHLTNESDGHTTSLYGIGFGPFIITNKHLFRRNNGTLVVQSLHGVFKVKDTTTLQQHLVDGRDMIIIRMPKDFPPFPQKLKFREPQRPERICLVTTNFQTKSMSSMVSDTSCTFPSGDGIFWKHWIQTKDGQCGSPLVSTRDGFIVGIHSASNFTNTNNYFTSVPKNFMELLTNQEAQQWVSGWRLNADSVLWGGHKVFMVKPEEPFQPVKEATQL [E107P],0.0946,0.0853,,,0.0576,0.062,0.0894,0.0275,0.0462,0.0502,0.0973,,0.0621,0.0573,,0.0705,0.0681,0.0733
